# Reference: PubChem BioAssay AID995 (National Center for Advancing Translational Sciences (NCATS), 2007)
# Among all 72,000 compounds or so, about 710 (0.99%) were called active. Inconclusive means that the source gave no clear call. Such entries were picked first, then a sample of the others. The call rests on the fitted dose curve; in most records, active means well fitted inhibition curve with a large enough effect; inconclusive means small, poorly fitted or top-dose-only effect; inactive means no such curve, though single readings can be large or run the other way. No potency is given beside an inconclusive call; the fits are too rough.
# Assay: qHTS Assay for Inhibitors of the ERK Signaling Pathway using a Homogeneous Screening Assay; further: nearly all actives have a fitted effect of over 55% in size
# Conditions: HEK293-V1b, vasopressin-stimulated pERK AlphaScreen; activity, negative = inhibition: at 57.5 µM (top of the series) unless noted
# Summary of the method: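 V1b-HEK293 cells; cpd 30 min 37C; 25 nM vasopressin 5 min; lyse 10 min; AlphaScreen beads 5 hr RT. Normalized to DMSO basal and 25 nM vasopressin; AC50 by Hill fit.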
# On the % scale 0 is the no-effect control and ±100 the full control effect; potency means the concentration at half of the fitted maximal effect; tags describe the fitted curve by direction and shape.
Compound,Potency,"activity, negative = inhibition"
NC(N)=Nc1ccc2[nH]c3c(c2c1)C[C@]1(O)[C@@H]2Cc4ccc(O)c5c4[C@]1(CCN2CC1CC1)[C@@H]3O5,"inconclusive [inhibitor, partial curve, poor fit]",–
N#Cc1ccccc1Cn1cc(C(=O)c2ccco2)c2ccccc21,–,inactive: -15.9%
O=C(c1ccc2c(=O)n(Cc3ccc4c(c3)OCO4)c(=S)[nH]c2c1)N1CCC2(CC1)OCCO2,"inconclusive [inhibitor, partial curve]",–
CN1C[C@H](C(=O)N[C@]2(C)O[C@@]3(O)[C@@H]4CCCN4C(=O)[C@H](Cc4ccccc4)N3C2=O)C=C2c3cccc4[nH]cc(c34)C[C@H]21,"inconclusive [inhibitor, full curve]",–
NNCc1cccc(O)c1,"inconclusive [inhibitor, full curve, poor fit]",–
COC1C=CC23c4cc5c(cc4CN(CC2O)C3C1)OCO5 (configuration not stated),"inconclusive [inhibitor, full curve, poor fit]",–
CNc1ccccc1C(=O)O,–,inactive: -9.62%
C[C@@]12CC[C@H]3[C@H](CCC4=CC(=O)CC[C@H]43)[C@H]1CC[C@H]2OC1(O)C(=O)c2ccccc2C1=O,–,inactive: 15.4% [at 11.5 µM]
Cc1cccc(-c2nc3ccccc3c(=O)n2-n2cccc2)c1,–,inconclusive: -31.9% [inhibitor]
CCCc1[nH]nc2c1C(c1ccc(OC)c(Cn3nnc4ccccc43)c1)C(C#N)=C(N)O2 (configuration not stated),"inconclusive [inhibitor, partial curve]",–
CN1C(=O)C(C2c3ccccc3C(=O)N2Cc2ccccc2)C(=O)N(C)C1=O (configuration not stated),"inconclusive [inhibitor, single point]",–
CCC(=NCc1ccco1)c1c(O)n(C2CCCCC2)c(=O)[nH]c1=O,–,inactive: -12.7%
CCN(CC)CCNC(=O)c1nn(-c2ccc(C)cc2)c(=O)c2c1c1ccccc1n2C,"inconclusive [inhibitor, partial curve]",–
CN(c1ccccc1)S(=O)(=O)c1cccc(C(=O)N2CCN(c3ccccn3)CC2)c1,active: 25.1 µM,–
CCOC(=O)CC(SP(=S)(OC)OC)C(=O)OCC (configuration not stated),–,inactive: -17.7%
CCOc1ccc(Br)c(C2(O)CC(C)N(C)CC2C)c1 (configuration not stated),–,inactive: -8.98%
O=C(C[C@H](c1ccccc1)c1c(O)c2ccccc2oc1=O)c1ccccc1,–,inactive: 6.43% [at 11.5 µM]
CN(C=O)CP(=O)(O)CN(C)C=O,–,inactive: -0.311%
Cn1c(O)c(C=NC2CC(C)(C)NC(C)(C)C2)c(=O)n(C)c1=O,"inconclusive [inhibitor, partial curve]",–
Clc1ccc(C(c2ccc(Cl)cc2)C(Cl)Cl)cc1,–,inactive: 82.1%
CN1CCc2cc(O)cc3c2[C@H]1Cc1ccc(O)c(O)c1-3,"inconclusive [inhibitor, partial curve]",–

Compound,Potency,"activity, negative = inhibition"
CCC(=Nc1ccc2c(c1)CCC2)c1c(O)n(C2CCCCC2)c(=O)[nH]c1=O,–,inactive: -14.6%
Cc1nc(N2CCN(Cc3ccccc3)CC2)nc2c1C(=O)CC(C)C2 (configuration not stated),"inconclusive [inhibitor, partial curve]",–
COc1ccc(NC(=O)Nc2cccc3cccnc23)cc1,"inconclusive [inhibitor, single point]",–
c1ccc(-c2ccc(C(c3ccccc3)n3ccnc3)cc2)cc1 (configuration not stated),"inconclusive [inhibitor, partial curve]",–
Cc1cc(NC(=O)COC(=O)c2c(C)nn(Cc3ccccc3Cl)c2Cl)no1,–,inactive: -7.64%
COC(=O)c1ccc(N2C(=O)CC(N3CCC(n4c(=O)[nH]c5ccccc54)CC3)C2=O)cc1 (configuration not stated),"inconclusive [inhibitor, partial curve, poor fit]",–
Cc1cc(OC(=O)CCNC(=O)OC(C)(C)C)c2c3c(c(=O)oc2c1)CCC3,"inconclusive [inhibitor, partial curve]",–
CCOC(=O)Cc1[nH]nc2c1C(c1ccoc1)C(C#N)=C(N)O2 (configuration not stated),"inconclusive [inhibitor, partial curve]",–
COc1ccc(N2C(=O)C(Cl)=C(N3CCN(Cc4ccccc4)CC3)C2=O)cc1,"inconclusive [inhibitor, partial curve]",–
COCCNC(=O)c1c(NC(=O)c2ccco2)n(Cc2ccccc2)c2nc3ccccc3nc12,–,inactive: 13.6%
CCc1ccc(OCCCN=C(C)c2c(O)n(C)c(=O)n(C)c2=O)cc1,"inconclusive [inhibitor, single point]",–
ClC(Cl)=C(Cl)Cl,inactive,–
COC(=O)C(C)Oc1cc(C)cc2oc(=O)c3c(c12)CCC3 (configuration not stated),"inconclusive [inhibitor, single point]",–
Cc1nc2cc(C(F)(F)F)ccc2n1C1CCN(Cc2nnnn2Cc2ccc3c(c2)OCO3)CC1,"inconclusive [inhibitor, single point]",–
Cc1cc(N=Nc2ccccc2C)ccc1N,"inconclusive [inhibitor, partial curve, poor fit]",–
C=CCN1CC[C@@]23c4c5ccc(O)c4O[C@H]2/C(=N\N=C2/CC[C@@]4(O)[C@H]6Cc7ccc(O)c8c7[C@@]4(CCN6CC=C)[C@@H]2O8)CC[C@]3(O)[C@@H]1C5,inactive,–
Cc1ccccc1-n1c(O)c(C=Nc2ccc(N(C)C)cc2)c(=O)[nH]c1=O,"inconclusive [inhibitor, partial curve]",–
C[C@@H]1CC[C@@H]2N(C1)C[C@H]1[C@@](O)([C@H](O)C[C@]3(O)[C@H]4CC[C@H]5[C@]6(O)O[C@]4(C[C@]13O)[C@@]5(C)CC[C@@H]6O)[C@@]2(C)O,–,inactive: -8.2% [at 11.5 µM]
N#CSCSC#N,active: 15.8 µM,–
O=C(O)[C@@H]1[C@H](C(=O)O)[C@]2(Cl)C(Cl)=C(Cl)[C@@]1(Cl)C2(Cl)Cl,"inconclusive [inhibitor, partial curve]",–
COc1cc2cc(c1Cl)N(C)C(=O)C[C@H](OC(=O)C(C)C)[C@]1(C)O[C@@H]1[C@@H](C)[C@H]1C[C@](O)(NC(=O)O1)[C@@H](OC)/C=C\C=C(\C)C2,–,inactive: -16.2% [at 11.5 µM]
